Assay results reported in the antibiotic and cytotoxicity screens of Wong et al. (2023).
Some of the results follow.

Legend:
[1] = system: HSkMC (human skeletal muscle cells); assay: cytotoxicity call (relative viability < 0.9); conditions: 10 µM
[2] = system: HepG2; assay: cytotoxicity call (relative viability < 0.9); conditions: 10 µM
[3] = system: S. aureus RN4220; assay: growth inhibition call (relative growth <= 0.2); conditions: 50 µM

SMILES | cytotoxicity call [1] | cytotoxicity call [2] | growth inhibition call [3]
C[C@H](CO)N1C[C@H](C)[C@H](CN(C)S(=O)(=O)c2cccs2)Oc2c(NS(=O)(=O)c3ccc(F)cc3)cccc2C1=O | inactive | inactive | inactive
C[C@@H]1CN([C@@H](C)CO)C(=O)c2cc(NC(=O)c3ccncc3)ccc2O[C@@H](C)CCCCO[C@@H]1CN(C)CC1CCCCC1 | inactive | inactive | inactive
Nc1c[n+](N2CCOCC2)no1 | inactive | inactive | inactive
CC(C)Cn1cnc2c1c(=O)n(C)c(=O)n2C | inactive | inactive | inactive
C[C@H](CO)N1C[C@H](C)[C@@H](CN(C)Cc2cncnc2)Oc2ncc(C#C[C@@H](C)O)cc2C1=O | inactive | inactive | inactive
CC12CC(OC1=O)C1(C)CCC3(C)C(=CCC4C5(C)CCC(O)C(C)(C)C5CCC43C)C1C2 (stereo not drawn) | inactive | inactive | inactive
C[C@H]1CCCCO[C@H](CN(C)C(=O)CCC(F)(F)F)[C@@H](C)CN([C@@H](C)CO)C(=O)c2cc(NC(=O)C3CCCCC3)ccc2O1 | inactive | inactive | inactive
C[C@@H]1CN([C@@H](C)CO)C(=O)Cc2cc(NC(=O)Cc3cn(C)c4ccccc34)ccc2O[C@@H]1CN(C)Cc1ccc(Oc2ccccc2)cc1 | inactive | active | inactive
Nc1ncnc2c1c(-c1ccc(Cl)cc1)nn2-c1cccc(-c2cnnn2Cc2cccc(-c3ccccc3)c2)c1 | active | inactive | inactive
O=C(C[C@@H]1CC[C@H](NC(=O)Nc2ccc3c(c2)OCO3)[C@@H](CO)O1)NCCCN1CCOCC1 | inactive | inactive | inactive
C[C@@H]1CCCCO[C@@H](CN(C)C(=O)Cc2ccccc2)[C@H](C)CN([C@@H](C)CO)C(=O)c2cc(NC(=O)Nc3cccc4ccccc34)ccc2O1 | inactive | inactive | inactive
CC(C)NC(=O)N(C)C[C@@H]1Oc2ccc(NS(=O)(=O)c3ccc(Cl)cc3)cc2CC(=O)N([C@@H](C)CO)C[C@H]1C | inactive | inactive | inactive
Cc1ccc(S(=O)(=O)Nc2ccc3c(c2)C(=O)N([C@@H](C)CO)C[C@@H](C)[C@H](CN(C)C(=O)Nc2ccc(F)cc2)OCCCC[C@@H](C)O3)cc1 | inactive | inactive | inactive
COCCOc1ccc(N2CCN(CCn3ncc4c3nc(N)n3nc(-c5ccco5)nc43)CC2)cc1 | inactive | inactive | inactive
C[C@H](CO)N1C[C@H](C)[C@H](CN(C)C(=O)Cc2ccccc2)Oc2cc(-c3cncnc3)ccc2S1(=O)=O | inactive | inactive | inactive
C[C@@H]1CCCCO[C@H](CN(C)C(=O)Nc2ccc(C(F)(F)F)cc2)[C@H](C)CN([C@@H](C)CO)C(=O)c2cc(NC(=O)Nc3ccccc3)ccc2O1 | inactive | inactive | inactive
Cc1noc(C)c1S(=O)(=O)N(C)C[C@H]1Oc2ccc(NS(=O)(=O)c3ccccc3)cc2CC(=O)N([C@@H](C)CO)C[C@H]1C | inactive | inactive | inactive
C[C@@H]1CCCCO[C@@H](CN(C)S(=O)(=O)c2ccc(F)cc2)[C@H](C)CN([C@H](C)CO)C(=O)c2cc(NC(=O)Cc3ccccc3)ccc2O1 | inactive | inactive | inactive
C[C@@H]1CN([C@H](C)CO)C(=O)c2cccc(NC(=O)Nc3cccc4ccccc34)c2O[C@H]1CN(C)C(=O)Nc1ccc(F)cc1 | inactive | inactive | inactive

SMILES | cytotoxicity call [1] | cytotoxicity call [2] | growth inhibition call [3]
OCc1cccc(CO)n1 | inactive | inactive | inactive
C[C@@H]1CCCCO[C@@H](CN(C)C(=O)NC2CCCCC2)[C@H](C)CN([C@@H](C)CO)C(=O)c2cc(NC(=O)c3ccccc3)ccc2O1 | inactive | inactive | inactive
CNC(=O)C(=O)Nc1ccc(N2CCCS2(=O)=O)cc1 | inactive | inactive | inactive
O=C(C[C@@H]1C=C[C@@H](NC(=O)Cc2ccccn2)[C@H](CO)O1)NCCCN1CCOCC1 | inactive | inactive | inactive
C[C@@H]1CN([C@H](C)CO)C(=O)c2c(c3ccccc3n2C)-c2ccccc2CO[C@H]1CN(C)C(=O)Nc1ccc(-c2ccccc2)cc1 | inactive | active | inactive
O=C(C[C@H]1C[C@@H]2c3cc(NS(=O)(=O)c4ccc(F)cc4)ccc3O[C@@H]2[C@H](CO)O1)N1CCCCC1 | inactive | inactive | inactive
C[C@H](CO)N1C[C@H](C)[C@@H](CN(C)C(=O)Nc2cccc(F)c2)Oc2cc(C#CC3(O)CCCC3)ccc2S1(=O)=O | inactive | inactive | inactive
C[C@@H]1CN([C@@H](C)CO)S(=O)(=O)c2ccc(C#CCN(C)C)cc2O[C@H]1CN(C)Cc1cccnc1 | inactive | inactive | inactive
Cc1noc(C)c1S(=O)(=O)Nc1ccc2c(c1)C(=O)N([C@H](C)CO)C[C@H](C)[C@H](CN(C)S(=O)(=O)c1ccccc1)O2 | inactive | inactive | inactive
C[C@H](CO)N1C[C@H](C)[C@H](CN(C)S(=O)(=O)c2cccs2)OCCCC[C@H](C)Oc2ccc(NC(=O)Nc3cccc4ccccc34)cc2C1=O | active | inactive | inactive
Cc1c(Cl)cccc1Nc1ncccc1C(=O)O | inactive | inactive | inactive
CNC(=O)CN1C(=O)c2ccccc2S1(=O)=O | inactive | inactive | inactive
Cn1c(O)cc(=O)n(C)c1=O | inactive | inactive | inactive
COc1ccc(S(=O)(=O)N(C)C[C@H]2OCCCC[C@@H](C)Oc3ccc(NS(C)(=O)=O)cc3C(=O)N([C@@H](C)CO)C[C@@H]2C)cc1 | inactive | inactive | inactive
C[C@H](CO)N1C[C@H](C)[C@H](CN(C)C(=O)Nc2ccc(C(F)(F)F)cc2)Oc2ccc(NC(=O)Nc3ccc(C(F)(F)F)cc3)cc2CC1=O | active | active | inactive
C[C@H]1CN([C@@H](C)CO)C(=O)c2cccc(NC(=O)Nc3ccc(F)cc3)c2O[C@H]1CN(C)C(=O)Nc1cccc2ccccc12 | inactive | inactive | inactive
C[C@H]1CN([C@@H](C)CO)C(=O)c2cc(NC(=O)Nc3ccc(F)cc3)ccc2O[C@@H]1CN(C)C(=O)Nc1ccc(C(F)(F)F)cc1 | inactive | inactive | inactive
CN1CCN(C(=O)C[C@H]2CC[C@H]3[C@@H](COC[C@@H](O)CN3C(=O)C3CCCC3)O2)CC1 | inactive | inactive | inactive
C[C@@H]1CCCCO[C@H](CN(C)C(=O)CCC(F)(F)F)[C@H](C)CN([C@H](C)CO)C(=O)c2cc(NS(=O)(=O)c3cccs3)ccc2O1 | inactive | inactive | inactive

SMILES | cytotoxicity call [1] | cytotoxicity call [2] | growth inhibition call [3]
O=C(Nc1cccc2cccnc12)[C@@H]1[C@H](c2ccc(Br)cc2)CC(=O)N1C(=O)OCc1ccccc1 | inactive | inactive | inactive
Cn1cnc(CCNC(=O)C[C@@H]2CC[C@@H]3[C@H](COC[C@@H](O)CN3C(=O)C3CC3)O2)c1 | inactive | inactive | inactive
CCCCCCCCCCOc1cc2c(O)c(C(=O)OCC)cnc2cc1OCC | inactive | inactive | inactive
C[C@@H]1CN([C@H](C)CO)C(=O)c2cccc(NS(=O)(=O)c3cn(C)cn3)c2O[C@@H]1CN(C)S(=O)(=O)c1cn(C)cn1 | inactive | inactive | inactive
Cc1ccc(S(=O)(=O)Nc2cccc3c2O[C@H](CN(C)S(=O)(=O)c2cn(C)cn2)[C@H](C)CN([C@H](C)CO)C3=O)cc1 | inactive | inactive | inactive
C[C@@H]1CN([C@@H](C)CO)C(=O)c2cc(NC(=O)Cn3cnnn3)ccc2O[C@H]1CN(C)C(=O)NC1CCCCC1 | inactive | inactive | inactive
CO[C@H]1CN(C)C(=O)c2ccc(NC(=O)c3ccc(F)cc3)cc2OC[C@H](C)N(C(=O)CN(C)C)C[C@H]1C | inactive | inactive | inactive
C[C@H]1CCCCO[C@@H](CN(C)Cc2ccc3c(c2)OCO3)[C@@H](C)CN([C@@H](C)CO)C(=O)c2cc(NS(=O)(=O)c3cccs3)ccc2O1 | inactive | inactive | inactive
CCC(C)C1OC2(CCC1C)CC1CC(CC=C(C)C(OC3CC(OC)C(OC4CC(OC)C(O)C(C)O4)C(C)O3)C(C)C=CC=C3COC4C(O)C(C)=CC(C(=O)O1)C34O)O2 (stereo not drawn) | inactive | active | inactive
C[C@H](CO)N1C[C@H](C)[C@@H](CN(C)Cc2ccc(C(F)(F)F)cc2)Oc2ccc(NC(=O)C3CCCCC3)cc2CC1=O | inactive | inactive | inactive
Nc1nnnn1-c1ccccc1 | inactive | inactive | active
CCOC(=O)c1cccnc1N | inactive | inactive | inactive
C[C@H](CO)N1C[C@H](C)[C@@H](CN(C)C(=O)c2cnccn2)Oc2ncc(-c3cccc(C#N)c3)cc2C1=O | inactive | inactive | inactive
Cc1ccc(S(=O)(=O)Nc2ccc3c(c2)C(=O)N([C@H](C)CO)C[C@H](C)[C@@H](CN(C)S(C)(=O)=O)O3)cc1 | inactive | inactive | inactive
C[C@@H]1CCCCO[C@H](CN(C)Cc2ccc(C(F)(F)F)cc2)[C@H](C)CN([C@H](C)CO)C(=O)c2cc(NS(=O)(=O)c3ccccc3)ccc2O1 | inactive | inactive | inactive
C[C@H]1CCCCO[C@H](CN(C)CC2CCCCC2)[C@@H](C)CN([C@@H](C)CO)C(=O)c2cc(NC(=O)c3ccncc3)ccc2O1 | inactive | inactive | inactive
CC(C)(C)[S@@+]([O-])N1Cc2cc(C(=O)NCc3ccc4c(c3)OCO4)nc(-c3ccc(-c4ccccc4)cc3)c2[C@H]1CCO | inactive | inactive | inactive
C[C@H]1CN([C@@H](C)CO)C(=O)Cc2cc(NS(=O)(=O)c3ccccc3)ccc2O[C@@H]1CN(C)Cc1ccc(Oc2ccccc2)cc1 | active | inactive | inactive
